Source: PubChem BioAssay AID686978 (National Center for Advancing Translational Sciences (NCATS), 2013)
In all, about 420,000 compounds went through this assay and about 64,000 (15%) were called active. This list was built around the results that the source calls inconclusive (neither active nor inactive); the mix of calls is not that of the screen. Calls follow the shape of the dose curve; as a rule, active = well fitted inhibition curve with a large enough effect; inconclusive = small, poorly fitted or top-dose-only effect; inactive = flat fitted curve, though single readings scatter. Potencies of inconclusive entries are left out as doubtful fits. The source holds several records for some structures; these can differ, active in one and inactive in another.
% is scaled to controls: 0 for no effect and ±100 for the full control effect; potency is read from the fitted curve at half-maximal effect; tags tell the direction and shape of the fitted curve.

Test: qHTS for Inhibitors of human tyrosyl-DNA phosphodiesterase 1 (TDP1): qHTS in cells in absence of CPT; also: nearly all actives have a fitted effect of over 55% in size
Settings: DT40 Tdp1-/- hTDP1 cells, no CPT, ATP luminescence, 48 h; activity change, negative = growth inhibition: at 46.2 µM (top of the series)
How it was run: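 Stably hTDP1-transfected Tdp1-null chicken DT40 cells were treated with library compounds minus camptothecin and grown for at least 48 hr at 37 °C, after which cellular ATP was quantified by luminescence.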
For `Cc1cccc(C(=O)Nc2ccc(-c3nc4ncccc4o3)cc2C)c1`, the Potency was inconclusive [inhibitor, single point].
With `O=C(NCCS(=O)(=O)N1CCc2ccccc2C1)c1ccccc1` the Potency was inconclusive [inhibitor, partial curve, poor fit].
For `CCOC(=O)C1C(=O)C=C(/C=C/c2ccc(N(C)C)cc2)CC1c1ccccc1` (centres undefined), the Potency was inconclusive [inhibitor, partial curve].
For `CN(CC(=O)NCc1ccco1)CC(=O)Nc1cc(S(C)(=O)=O)ccc1Cl`, the Potency was “inactive”.
For `CCC(C)N1CC(O)=C(c2nc3ccccc3[nH]2)C1=N` (centres undefined), the Potency was inconclusive [inhibitor, partial curve].
With `COC(=O)[C@@]12C[C@@H](CC(=O)NCC3CCCCC3)C(=O)N(Cc3ccccc3)C1=CCC(C)(C)C2` the Potency was inconclusive [inhibitor, single point].
With `CC1(C2CCC3C4CCC5CC6(CCC5(C)C4C(=O)CC32C)OCCO6)OCCO1` (centres undefined) the Potency was inconclusive [inhibitor, partial curve].
For `CC(=O)c1ccc(N(C(=O)c2csnn2)C(C(=O)NC(C)(C)C)c2cccs2)cc1` (centres undefined), the activity change, negative = growth inhibition was inconclusive: -32% [inhibitor].
For `CC1(C)CC(=O)C=C(c2n[nH]nc2C2CC2)C1`, the Potency was “inactive”.
In the case of `Cc1ccc2nc(SCc3ccccc3)c(C=O)c(=O)n2c1`, the Potency is reported as “inactive”.
In the case of `c1ccc(CN2CCN(c3nc4ccccc4n4cnnc34)CC2)cc1`, the Potency is reported as inconclusive [inhibitor, partial curve].
In the case of `Cc1ccc2[nH]c(=O)c3cc(C(=O)NCCC(C)C)sc3c2c1`, the Potency is reported as inconclusive [inhibitor, single point].
In the case of `Cc1c([C@@H]2C[C@H]3CN(Cc4cccc(Cl)c4)C(=O)[C@]34CCCN24)cnn1C`, the Potency is reported as inconclusive [inhibitor, single point].
In the case of `CCCN1CCN(C(=O)c2cc3c(s2)-c2ccccc2OC3)CC1`, the Potency is reported as “inactive”.
With `Cc1nn(CC(=O)NC2CC2)c(C)c1S(=O)(=O)NC(C)(C)C` the Potency was “inactive”.
For `COc1cccc(CC2(CO)CCCN(Cc3[nH]c4ccc(C)cc4c3C)C2)c1` (centres undefined), the Potency was inconclusive [inhibitor, single point].
For `CCOC(=O)c1cccc(NC(=O)c2cnc3ccccc3n2)c1`, the Potency was active: 25.9 µM.
For `Clc1ccc2c(c1)C(N1CCNCC1)=Nc1ccccc1O2`, the Potency was active: 7.31 µM.
In the case of `O=C(N/N=C/c1cccc(O)c1)c1ccc(COc2ccc3c(c2)CCC3)o1`, the Potency is reported as inconclusive [inhibitor, single point].
